Data taken from the supplement of paper PMC4967469.
By IC50 is meant the dose at which the fit gives 50% viability; fits outside the tested doses are given as limits. AUC sums up the same curve from the lowest dose to the 256-fold higher top dose: 1 means no effect, lower means more sensitive. For some of these results: Where the top dose is marked as inferred, it was calculated from the reported fits. For some of these results: Where an entry number is given, a second screen of the drug exists; the two often differ.

Tests used:
Assay in all cases: Viability of human cancer cell lines after 72 h of drug (GDSC screen)
KIN001-135 = compound: COc1cc2ncn(-c3cc(OCc4ccccc4S(C)(=O)=O)c(C#N)s3)c2cc1OC [KIN001-135]; details: top dose 5 µM; top dose inferred
Method: (§1)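 Human cancer cell lines in 384-well plates, medium with 10% serum, drug for 72 h over a 256-fold dose range (nine 2-fold or five 4-fold steps up to the top dose). Adherent lines were fixed and stained with the nucleic acid dye Syto60, suspension lines read with resazurin; signal relative to control wells, capped at 0 and 100%. One two-parameter sigmoid per drug and line, fitted in a mixed model over all curves with the slope shared within a line.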

PAC-1 = compound: C=CCc1cccc(/C=N/NC(=O)CN2CCN(Cc3ccccc3)CC2)c1O [PAC-1]; details: top dose 2.56 µM
Method: as §1

Parthenolide = compound: C=C1C(=O)O[C@H]2[C@H]1CC/C(C)=C/CC[C@@]1(C)O[C@@H]21 [Parthenolide]; details: top dose 5 µM
Method: as §1

BMS-708163 = compound: NC(=O)[C@@H](CCC(F)(F)F)N(Cc1ccc(-c2ncon2)cc1F)S(=O)(=O)c1ccc(Cl)cc1 [BMS-708163]; details: top dose 5 µM; screen: GDSC drug entry 1072; top dose inferred
Method: as §1

Row | Cell Line | AUC (KIN001-135) | IC50 (KIN001-135) [µM] | AUC (PAC-1) | IC50 (PAC-1) [µM] | AUC (Parthenolide) | IC50 (Parthenolide) [µM] | AUC (BMS-708163) | IC50 (BMS-708163) [µM]
1 | MS-1 (small cell lung carcinoma, suspension) | 0.979 | > 5 | 0.97 | > 2.56 | 0.987 | > 5 | 0.987 | > 5
2 | CESS (acute myeloid leukaemia, suspension) | 0.991 | > 5 | 0.808 | 1.1 | 0.921 | > 5 | 0.989 | > 5
3 | D-392MG (glioma, adherent) | 0.976 | > 5 | 0.977 | > 2.56 | 0.953 | > 5 | 0.896 | > 5
4 | LC-2-ad (lung adenocarcinoma, adherent) | 0.985 | > 5 | 0.778 | 1.06 | 0.985 | > 5 | 0.966 | > 5
5 | COLO-668 (small cell lung carcinoma, adherent) | 0.971 | > 5 | 0.825 | 1.53 | 0.989 | > 5 | 0.842 | 3.52
6 | LB2241-RCC (kidney, adherent) | 0.983 | > 5 | 0.931 | > 2.56 | 0.862 | > 5 | 0.979 | > 5
7 | CGTH-W-1 (thyroid, adherent) | 0.986 | > 5 | 0.977 | > 2.56 | 0.987 | > 5 | 0.975 | > 5
8 | DJM-1 (skin, adherent) | 0.982 | > 5 | 0.989 | > 2.56 | 0.896 | > 5 | 0.982 | > 5
9 | NCI-H1304 (small cell lung carcinoma, suspension) | 0.983 | > 5 | 0.924 | > 2.56 | 0.886 | > 5 | 0.968 | > 5
10 | PF-382 (T-cell lymphoblastic leukaemia, suspension) | 0.989 | > 5 | 0.807 | 1.12 | 0.953 | > 5 | 0.991 | > 5
11 | SU-DHL-6 (B-cell lymphoma, suspension) | 0.993 | > 5 | 0.993 | > 2.56 | 0.816 | 1.93 | 0.983 | > 5
12 | MZ2-MEL (melanoma, adherent) | 0.983 | > 5 | 0.958 | > 2.56 | 0.927 | > 5 | 0.922 | > 5
13 | EM-2 (chronic myeloid leukaemia, suspension) | 0.971 | > 5 | 0.964 | > 2.56 | 0.772 | 2.18 | 0.971 | > 5
14 | JVM-3 (lymphoid neoplasm, suspension) | 0.987 | > 5 | 0.962 | > 2.56 | 0.983 | > 5 | 0.987 | > 5
15 | HT-144 (melanoma, adherent) | 0.984 | > 5 | 0.83 | 1.88 | 0.98 | > 5 | 0.984 | > 5
16 | NH-12 (neuroblastoma, adherent) | 0.985 | > 5 | 0.757 | 0.979 | 0.95 | > 5 | 0.913 | > 5
17 | TE-1 (oesophagus, adherent) | 0.937 | > 5 | 0.982 | > 2.56 | 0.902 | > 5 | 0.915 | > 5
18 | NOS-1 (osteosarcoma, adherent) | 0.961 | > 5 | 0.827 | 2.08 | 0.975 | > 5 | 0.98 | > 5
19 | GRANTA-519 (B-cell lymphoma, suspension) | 0.991 | > 5 | 0.983 | > 2.56 | 0.986 | > 5 | 0.988 | > 5
20 | NCI-H1355 (lung adenocarcinoma, adherent) | 0.972 | > 5 | 0.916 | > 2.56 | 0.898 | > 5 | 0.956 | > 5

Row | Cell Line | AUC (KIN001-135) | IC50 (KIN001-135) [µM] | AUC (PAC-1) | IC50 (PAC-1) [µM] | AUC (Parthenolide) | IC50 (Parthenolide) [µM] | AUC (BMS-708163) | IC50 (BMS-708163) [µM]
21 | ALL-PO (lymphoblastic leukaemia, suspension) | 0.977 | > 5 | 0.853 | 2.17 | 0.906 | > 5 | 0.983 | > 5
22 | C2BBe1 (large intestine, adherent) | 0.986 | > 5 | 0.911 | > 2.56 | 0.947 | > 5 | 0.984 | > 5
23 | 8-MG-BA (glioma, adherent) | 0.988 | > 5 | 0.988 | > 2.56 | 0.88 | 4.64 | 0.985 | > 5
24 | RS4-11 (leukaemia, suspension) | 0.988 | > 5 | 0.773 | 0.912 | 0.975 | > 5 | 0.983 | > 5
25 | RPMI-8866 (chronic myeloid leukaemia, suspension) | 0.977 | > 5 | 0.961 | > 2.56 | 0.985 | > 5 | 0.988 | > 5
26 | HCC2998 (large intestine, adherent) | 0.988 | > 5 | 0.827 | 1.5 | 0.981 | > 5 | 0.966 | > 5
27 | JM1 (B-cell lymphoma, suspension) | 0.989 | > 5 | 0.939 | > 2.56 | 0.841 | 2.79 | 0.987 | > 5
28 | D-502MG (glioma, adherent) | 0.974 | > 5 | 0.937 | > 2.56 | 0.945 | > 5 | 0.847 | > 5
29 | OMC-1 (cervix, adherent) | 0.988 | > 5 | 0.987 | > 2.56 | 0.988 | > 5 | 0.984 | > 5
30 | SK-MEL-2 (melanoma, adherent) | 0.98 | > 5 | 0.946 | > 2.56 | 0.987 | > 5 | 0.978 | > 5
31 | HDLM-2 (Hodgkin lymphoma, suspension) | 0.987 | > 5 | 0.843 | 1.77 | 0.981 | > 5 | 0.989 | > 5
32 | DG-75 (Burkitt lymphoma, suspension) | 0.975 | > 5 | 0.955 | > 2.56 | 0.96 | > 5 | 0.969 | > 5
33 | RCC10RGB (kidney, adherent) | 0.969 | > 5 | 0.942 | > 2.56 | 0.89 | > 5 | 0.97 | > 5
34 | TK (B-cell lymphoma, suspension) | 0.981 | > 5 | 0.815 | 1.25 | 0.952 | > 5 | 0.985 | > 5
35 | IST-MEL1 (melanoma, adherent) | 0.982 | > 5 | 0.91 | > 2.56 | 0.982 | > 5 | 0.969 | > 5
36 | LS-411N (large intestine, adherent) | 0.961 | > 5 | 0.812 | 1.75 | 0.944 | > 5 | 0.966 | > 5
37 | GOTO (neuroblastoma, adherent) | 0.981 | > 5 | 0.961 | > 2.56 | 0.962 | > 5 | 0.928 | > 5
38 | SK-ES-1 (Ewing sarcoma, semi-adherent) | 0.968 | > 5 | 0.839 | 1.92 | 0.937 | > 5 | 0.976 | > 5
39 | HCC1187 (breast, suspension) | 0.978 | > 5 | 0.975 | > 2.56 | 0.961 | > 5 | 0.942 | > 5
40 | NCI-H720 (lung carcinoid, suspension) | 0.986 | > 5 | 0.99 | > 2.56 | 0.863 | 3.75 | 0.988 | > 5

Row | Cell Line | AUC (KIN001-135) | IC50 (KIN001-135) [µM] | AUC (PAC-1) | IC50 (PAC-1) [µM] | AUC (Parthenolide) | IC50 (Parthenolide) [µM] | AUC (BMS-708163) | IC50 (BMS-708163) [µM]
41 | TE-6 (oesophagus, adherent) | 0.979 | > 5 | 0.976 | > 2.56 | 0.986 | > 5 | 0.839 | 4.3
42 | OS-RC-2 (kidney, adherent) | 0.965 | > 5 | 0.9 | > 2.56 | 0.865 | > 5 | 0.978 | > 5
43 | NCI-H23 (lung adenocarcinoma, adherent) | 0.985 | > 5 | 0.982 | > 2.56 | 0.988 | > 5 | 0.861 | 4.16
44 | HOP-62 (lung adenocarcinoma, adherent) | 0.974 | > 5 | 0.869 | 2.35 | 0.955 | > 5 | 0.986 | > 5
45 | NCI-H1876 (small cell lung carcinoma, adherent) | 0.986 | > 5 | 0.979 | > 2.56 | 0.924 | > 5 | 0.98 | > 5
46 | MPP-89 (mesothelioma, adherent) | 0.978 | > 5 | 0.98 | > 2.56 | 0.902 | > 5 | 0.979 | > 5
47 | L-540 (Hodgkin lymphoma, suspension) | 0.987 | > 5 | 0.845 | 1.56 | 0.986 | > 5 | 0.99 | > 5
48 | JURL-MK1 (chronic myeloid leukaemia, suspension) | 0.981 | > 5 | 0.963 | > 2.56 | 0.977 | > 5 | 0.986 | > 5
49 | ONS-76 (medulloblastoma, adherent) | 0.984 | > 5 | 0.917 | > 2.56 | 0.975 | > 5 | 0.928 | > 5
50 | ES6 (Ewing sarcoma, adherent) | 0.973 | > 5 | 0.808 | 1.73 | 0.973 | > 5 | 0.96 | > 5
51 | NCI-H2227 (small cell lung carcinoma, semi-adherent) | 0.969 | > 5 | 0.983 | > 2.56 | 0.984 | > 5 | 0.958 | > 5
52 | NCI-H526 (small cell lung carcinoma, suspension) | 0.989 | > 5 | 0.966 | > 2.56 | 0.967 | > 5 | 0.989 | > 5
53 | NB69 (neuroblastoma, adherent) | 0.989 | > 5 | 0.954 | > 2.56 | 0.989 | > 5 | 0.988 | > 5
54 | VCaP (prostate, adherent) | 0.987 | > 5 | 0.887 | > 2.56 | 0.878 | > 5 | 0.987 | > 5
55 | MY-M12 (leukaemia, suspension) | 0.976 | > 5 | 0.939 | > 2.56 | 0.875 | > 5 | 0.941 | > 5
56 | NB6 (neuroblastoma, adherent) | 0.966 | > 5 | 0.984 | > 2.56 | 0.984 | > 5 | 0.975 | > 5
57 | A4-Fuk (B-cell lymphoma, suspension) | 0.986 | > 5 | 0.912 | > 2.56 | 0.918 | > 5 | 0.978 | > 5
58 | NMC-G1 (glioma, adherent) | 0.979 | > 5 | 0.981 | > 2.56 | 0.982 | > 5 | 0.815 | 3.55
59 | P30-OHK (lymphoblastic leukaemia, suspension) | 0.987 | > 5 | 0.852 | 1.49 | 0.937 | > 5 | 0.986 | > 5
